# Assay results as given in the supplement of paper PMC8728848.
# The other results are listed elsewhere or left out.
# Experiments:
# Experiment in all cases: glycan array binding signal (z-score within array); higher = stronger binding
# Settings in all cases: glycan notation: IUPAC condensed, linker removed
# [1] = biological target: Gal(b1-4)GlcNAc(a1-6)Gal(b1-4)GlcNAc
# Method in brief: (§1)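 From the Consortium for Functional Glycomics database, 3228 arrays were curated, keeping only those whose protein sequence was available. Binding is given as a within-array Z-score averaged across arrays sharing a protein sequence and across linkers. Negative Z-scores can be read as non-binding.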
# [2] = biological target: Gal(b1-4)GlcNAc(b1-2)Man(a1-3)Man(b1-4)GlcNAc(b1-4)GlcNAc
# Method in brief: as §1
# [3] = biological target: Gal(b1-4)GlcNAc(b1-2)Man(a1-3)[Gal(b1-4)GlcNAc(b1-2)Man(a1-6)]Man(b1-4)GlcNAc(b1-4)GlcNAc
# Method in brief: as §1
# [4] = biological target: Gal(b1-4)GlcNAc(b1-2)Man(a1-3)[Gal(b1-4)GlcNAc(b1-2)Man(a1-6)]Man(b1-4)GlcNAc(b1-4)[Fuc(a1-6)]GlcNAc
# Method in brief: as §1
# [5] = biological target: Gal(b1-4)GlcNAc(b1-2)Man(a1-3)[Man(a1-6)]Man(b1-4)GlcNAc(b1-4)GlcNAc
# Method in brief: as §1
# [6] = biological target: Gal(b1-4)GlcNAc(b1-2)Man(a1-6)Man(b1-4)GlcNAc(b1-4)GlcNAc
# Method in brief: as §1
# [7] = biological target: Gal(b1-4)GlcNAc(b1-2)Man(a1-6)[Man(a1-3)]Man(b1-4)GlcNAc(b1-4)GlcNAc
# Method in brief: as §1
# [8] = biological target: Gal(b1-4)GlcNAc(b1-2)[Gal(b1-4)GlcNAc(b1-4)]Man(a1-3)[Gal(b1-4)GlcNAc(b1-2)Man(a1-6)]Man(b1-4)GlcNAc(b1-4)GlcNAc
# Method in brief: as §1
# [9] = biological target: Gal(b1-4)GlcNAc(b1-3)Gal(b1-3)GlcNAc
# Method in brief: as §1
# [10] = biological target: Gal(b1-4)GlcNAc(b1-3)Gal(b1-4)Glc
# Method in brief: as §1
# [11] = biological target: Gal(b1-4)GlcNAc(b1-3)Gal(b1-4)GlcNAc
# Method in brief: as §1
# [12] = biological target: Gal(b1-4)GlcNAc(b1-3)Gal(b1-4)GlcNAc(b1-3)Gal(b1-4)GlcNAc
# Method in brief: as §1
# [13] = biological target: Gal(b1-4)GlcNAc(b1-3)Gal(b1-4)[Fuc(a1-3)]GlcNAc(b1-3)Gal(b1-4)[Fuc(a1-3)]GlcNAc
# Method in brief: as §1
# [14] = biological target: Gal(b1-4)GlcNAc(b1-3)GalNAc
# Method in brief: as §1
# [15] = biological target: Gal(b1-4)GlcNAc(b1-3)[Gal(b1-4)GlcNAc(b1-6)]Gal(b1-4)GlcNAc
# Method in brief: as §1
# [16] = biological target: Gal(b1-4)GlcNAc(b1-3)[GlcNAc(b1-6)]Gal(b1-4)GlcNAc
# Method in brief: as §1
# [17] = biological target: Gal(b1-4)GlcNAc(b1-6)Gal(b1-4)GlcNAc
# Method in brief: as §1
# [18] = biological target: Gal(b1-4)GlcNAc(b1-6)Gal(b1-4)GlcNAc(b1-6)GalNAc
# Method in brief: as §1
# [19] = biological target: Gal(b1-4)GlcNAc(b1-6)GalNAc
# Method in brief: as §1
# [20] = biological target: Gal(b1-4)GlcNAc(b1-6)[Gal(b1-3)]GalNAc
# Method in brief: as §1
# [21] = biological target: Gal3S(b1-3)GalNAc
# Method in brief: as §1
# [22] = biological target: Gal3S(b1-3)GlcNAc
# Method in brief: as §1
# [23] = biological target: Gal3S(b1-3)[Fuc(a1-4)]GlcNAc
# Method in brief: as §1
# [24] = biological target: Gal3S(b1-4)Glc
# Method in brief: as §1
# [25] = biological target: Gal3S(b1-4)Glc6S
# Method in brief: as §1
# [26] = biological target: Gal3S(b1-4)GlcNAc
# Method in brief: as §1
# [27] = biological target: Gal3S(b1-4)GlcNAc6S
# Method in brief: as §1
# [28] = biological target: Gal3S(b1-4)[Fuc(a1-3)]Glc
# Method in brief: as §1
# [29] = biological target: Gal3S4S(b1-4)GlcNAc
# Method in brief: as §1
# [30] = biological target: Gal3S6S(b1-4)GlcNAc
# Method in brief: as §1
# [31] = biological target: Gal3S6S(b1-4)GlcNAc6S
# Method in brief: as §1
# [32] = biological target: Gal4S(b1-4)GlcNAc
# Method in brief: as §1
# [33] = biological target: Gal4S6S(b1-4)GlcNAc
# Method in brief: as §1
# [34] = biological target: Gal6S(b1-4)Glc
# Method in brief: as §1
# [35] = biological target: Gal6S(b1-4)Glc6S
# Method in brief: as §1
# [36] = biological target: Gal6S(b1-4)GlcNAc
# Method in brief: as §1
# [37] = biological target: Gal6S(b1-4)GlcNAc6S
# Method in brief: as §1
binder,measurement,setting,value
"DC-ASPGR (Homo sapiens), CLC10_HUMAN (protein) LDQNSKFQRDLVTLRTDFSNFTSNTVAEIQALTSQGSSLEETIASLKAEVEGFKQERQAVHSEMLLRVQQLVQDLKKLTCQVATLNNNASTEGTCCPVNWVEHQDSCYWFSHSGMSWAEAEKYCQLKNAHLVVINSREEQNFVQKYLGSAYTWMGLSDPEGAWKWVDGTDYATGFQNWKPGQPDDWQGHGLGGGEDCAHFHPDGRWNDDVCQRPYHWVCEAGLGQTSQESHVEPKSCDKTHTCPPCPAPELLGGPSVFLFPPKPKDTLMISRTPEVTCVVVDVSHEDPEVKFNWYVDGVEVHNAKTKPREEQFNSTYRVVSVLTVLHQDWLNGKEYKCKVSNKGLPSSIEKTISKAKGQPREPQVYTLPPSQEEMTKNQVSLTCLVKGFYPSDIAVEWESNGQPENNYKTTPPVLDSDGSFFLYSRLTVDKSRWQEGNVFSCSVMHEALHNHYTQK",glycan array binding signal (z-score),[1],-0.281
same,glycan array binding signal (z-score),[2],-0.268
same,glycan array binding signal (z-score),[3],-0.177
same,glycan array binding signal (z-score),[4],-0.232
same,glycan array binding signal (z-score),[5],-0.194
same,glycan array binding signal (z-score),[6],-0.192
same,glycan array binding signal (z-score),[7],-0.175
same,glycan array binding signal (z-score),[8],-0.101
same,glycan array binding signal (z-score),[9],-0.195
same,glycan array binding signal (z-score),[10],-0.176
same,glycan array binding signal (z-score),[11],-0.065
same,glycan array binding signal (z-score),[12],-0.217
same,glycan array binding signal (z-score),[13],-0.197
same,glycan array binding signal (z-score),[14],-0.175
same,glycan array binding signal (z-score),[15],-0.154
same,glycan array binding signal (z-score),[16],-0.172
same,glycan array binding signal (z-score),[17],-0.137
same,glycan array binding signal (z-score),[18],-0.298
same,glycan array binding signal (z-score),[19],3.86
same,glycan array binding signal (z-score),[20],-0.173
same,glycan array binding signal (z-score),[21],-0.146
same,glycan array binding signal (z-score),[22],-0.229
same,glycan array binding signal (z-score),[23],-0.063
same,glycan array binding signal (z-score),[24],-0.178
same,glycan array binding signal (z-score),[25],-0.096
same,glycan array binding signal (z-score),[26],-0.212
same,glycan array binding signal (z-score),[27],-0.213
same,glycan array binding signal (z-score),[28],-0.149
same,glycan array binding signal (z-score),[29],-0.044
same,glycan array binding signal (z-score),[30],-0.208
same,glycan array binding signal (z-score),[31],-0.248
same,glycan array binding signal (z-score),[32],-0.079
same,glycan array binding signal (z-score),[33],0.091
same,glycan array binding signal (z-score),[34],-0.271
same,glycan array binding signal (z-score),[35],-0.166
same,glycan array binding signal (z-score),[36],-0.069
same,glycan array binding signal (z-score),[37],-0.161
